Results: article PMC4336329 (PLoS ONE, 2015)
Hit rate of the full screen: of about 310,000 compounds, about 14,000 (4.5%) showed an effect of 50% or more. The effect is printed as a negative number. This is one part of the list.

Target: human ether-à-go-go-related gene (hERG) potassium channel (human, UniProt Q12809)
Test: primary screen, population patch clamp on CHO cells stably expressing hERG
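Note: peak tail current of the secondary pulse compared with the same well before compound.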

Chain of human ether-à-go-go-related gene (hERG) potassium channel (Q12809 whole entry, looked up): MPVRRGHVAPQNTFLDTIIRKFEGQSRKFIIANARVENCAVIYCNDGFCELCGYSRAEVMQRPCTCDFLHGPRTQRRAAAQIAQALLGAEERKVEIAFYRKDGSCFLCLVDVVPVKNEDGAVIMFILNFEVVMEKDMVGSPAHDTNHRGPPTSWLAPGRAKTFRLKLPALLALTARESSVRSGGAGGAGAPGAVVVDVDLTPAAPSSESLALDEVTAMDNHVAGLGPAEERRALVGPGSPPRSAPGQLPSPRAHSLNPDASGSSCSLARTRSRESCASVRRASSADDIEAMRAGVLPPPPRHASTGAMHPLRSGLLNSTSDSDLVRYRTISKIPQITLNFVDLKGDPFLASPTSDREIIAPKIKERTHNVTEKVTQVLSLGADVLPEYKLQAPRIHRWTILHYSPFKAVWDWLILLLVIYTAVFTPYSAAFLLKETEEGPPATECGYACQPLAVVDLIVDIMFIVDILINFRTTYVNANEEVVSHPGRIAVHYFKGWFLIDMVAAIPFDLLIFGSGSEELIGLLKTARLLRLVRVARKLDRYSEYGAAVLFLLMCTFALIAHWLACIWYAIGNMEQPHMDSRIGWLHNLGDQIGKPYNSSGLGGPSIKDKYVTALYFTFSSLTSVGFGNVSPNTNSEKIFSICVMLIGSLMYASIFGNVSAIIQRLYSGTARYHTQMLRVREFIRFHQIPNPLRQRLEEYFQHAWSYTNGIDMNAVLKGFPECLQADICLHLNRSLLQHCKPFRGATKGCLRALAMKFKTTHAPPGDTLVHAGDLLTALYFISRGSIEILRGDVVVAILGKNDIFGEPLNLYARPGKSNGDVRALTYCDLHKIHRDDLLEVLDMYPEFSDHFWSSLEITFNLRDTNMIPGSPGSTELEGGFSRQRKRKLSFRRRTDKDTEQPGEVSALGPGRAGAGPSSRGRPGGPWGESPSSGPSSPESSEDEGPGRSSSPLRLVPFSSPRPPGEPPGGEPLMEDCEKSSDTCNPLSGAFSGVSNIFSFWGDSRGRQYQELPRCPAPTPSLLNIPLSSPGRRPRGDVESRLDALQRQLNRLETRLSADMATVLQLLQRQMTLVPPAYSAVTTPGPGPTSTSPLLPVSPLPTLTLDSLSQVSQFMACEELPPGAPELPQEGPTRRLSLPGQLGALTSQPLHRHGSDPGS

Compound | hERG current change (%, negative = inhibition) at 10uM
O=C(Nc1ccc(Nc2ccccc2)cc1)c1ccc(Cl)cc1Cl | 2.93%
O=c1ccc(-c2ccccc2)no1 | 5.52%
CC[C@@H]1[C@H]2CCCC(=O)N3CC[C@@H](C[C@@H]1OC(=O)NCc1ccccc1)[C@@H]23 | -5.22%
Cc1ccc(C(=O)NC2CCCCCC2)cc1N1CCCC1=O | -3.64%
COc1ccc(C2SCC(=O)N2c2ccc(C)cc2)cc1 (stereo not shown) | 18.3%
c1ccc2c(c1)OCC(c1nnc3sc(-c4cnccn4)nn13)O2 (stereo not shown) | -15.1%
CC(CCn1cccn1)NC(=O)CCc1nnc(CCc2ccccc2)o1 (stereo not shown) | 3.9%
Cc1ccc(N2C(=O)C3CCC(C)(C2=O)C3(C)C)cc1C (stereo not shown) | 26.4%
O=C(N/N=C/c1ccc2c(c1)OCO2)C(=O)Nc1ccccc1 | 8.24%
COc1ccc(C(=O)OC(C)C(=O)NC(C)CCc2ccccc2)cc1OC (stereo not shown) | -2.04%
NS(=O)(=O)c1cc2c(cc1C(F)(F)F)NCNS2(=O)=O | -8.3%
COc1ccc(OCC(=O)N/N=C/C2CC=CCC2)cc1 (stereo not shown) | 0.345%
CC(C)N(C(=O)Cn1cc(SCC(=O)N2CCCC2)c2ccccc21)C(C)C | -27.3%
CC1(C)Oc2ccc3ccc(=O)oc3c2C(/C=N/O)=C1Cl | 14.7%
CC(C)N(Cc1nc(-c2ccccc2)no1)C(=O)CN1C(=O)c2ccccc2C1=O | -5.09%
COc1ccc2c(c1)OC[C@H]1[C@H]2N2C(=O)CN(Cc3ccco3)C(=O)[C@@]2(C)[C@H]1c1ccccc1 | 10.7%
CSCC(=O)N1CCc2ccc(NC(=O)c3ccccc3Cl)cc2C1 | -31.9%
CC(NC(=O)OCc1ccccc1)C(=O)NCC1CCCO1 (stereo not shown) | 4.14%
CC(/C=C/c1ccccc1)=N\Nc1nc2c(c(=O)[nH]c(=O)n2C)n1CCO | -0.388%
O=C(CSc1ccc2nnc(-c3ccc(F)cc3)n2n1)N1CCCc2ccccc21 | -16%
CCn1cc(/C=C(\NC(=O)c2ccccc2F)C(=O)NCCCN2CCOCC2)c2ccccc21 | 1.67%
CCN(CC)S(=O)(=O)c1cc(NC(=O)C(C)N(C)CC(=O)Nc2c(C)cccc2C)ccc1C (stereo not shown) | -15.4%

Compound | hERG current change (%, negative = inhibition) at 10uM
CC(=O)N(CCCCN1C(=O)c2ccccc2C1=O)c1ccc(C)cc1 | -34.5%
Oc1cccc(/C=N/N2CCN(C3c4ccccc4-c4ccccc43)CC2)c1 | 7.98%
COc1ccc(C2(c3ccc(OC)cc3)NC(=O)N(CC(=O)Nc3ccccc3C(F)(F)F)C2=O)cc1 | 9.73%
COc1cccc(CC(NC(C)=O)C(=O)NC2CCN(c3ncccc3[N+](=O)[O-])CC2)c1 (stereo not shown) | 29.3%
COC(=O)c1ccc(COC(=O)c2cc3ccccc3oc2=O)cc1 | 14.9%
O=C(NC1CCCCCC1)c1ccc(Cl)c(S(=O)(=O)N2CCOCC2)c1 | -15.7%
CC(NS(=O)(=O)c1ccc(OCC(=O)NCc2cccnc2)cc1)c1ccccc1 (stereo not shown) | 13.4%
C#CCOCCOCCOCCNc1nc(N2CCN(C(=O)[C@H](CCC(=O)O)n3cc(C(N)Cc4ccc(O)cc4)nn3)CC2)nc(N2CCN(C(=O)[C@H](Cc3cc4ccccc4[nH]3)n3cc(C(N)CC(C)C)nn3)CC2)n1.Cl (stereo partly shown) | 4.72%
COc1ccc(OCC(=O)Nc2ccc(Cl)cc2)cc1 | 6.34%
COc1cccc(CNC(=O)C2CC(=O)N(C3CCCCC3)C2)c1 (stereo not shown) | 6.07%
Cc1cc(C)cc(C(=O)Nc2ccncc2)c1 | 7.83%
CC(C)OCCCNC(=O)c1c(N)n(/N=C/c2ccccn2)c2nc3ccccc3nc12 | 8.35%
O=C(/C=C/c1ccc(S(=O)(=O)N2CCOCC2)cc1)OCC(=O)c1ccc([N+](=O)[O-])cc1 | -11.9%
COC(=O)c1cccc(NC(=O)C2COc3ccccc3O2)c1C (stereo not shown) | -2.79%
COCCNC(=O)c1cc(-c2cccs2)on1 | -2.54%
Cc1cc(OCC(=O)NC(C)(C)C)ccc1Cl | 7.04%
O=C1c2ccccc2NC2CCCCCN12 (stereo not shown) | 3.56%
CCOc1ccc2nc(N=Nc3c(O)[nH]c(=O)[nH]c3=O)sc2c1 | -0.012%
O=C(O)C(=O)O.c1ccc(CC2CCN(Cc3ccccn3)CC2)cc1 | -23.1%
CCN(CC)CCn1c2c(c(SCC(=O)Nc3nc4ccc(C)cc4s3)nc1=O)CCC2 | -30.4%
Cc1ccc(N2C(=O)N(CC(=O)N(C)Cc3ccccc3)C(=O)C2C)cc1 (stereo not shown) | -21.7%
CCOC(=O)N1CCC(NC(=O)c2ccc(CS(=O)(=O)c3ccc(OC)cc3)o2)CC1 | -33.4%

Compound | hERG current change (%, negative = inhibition) at 10uM
CCOc1ccc(C(=O)NCC(=O)OCC(=O)NC2CCCC2)cc1 | 0.69%
CCc1ccc(/C(C)=N/NC(=O)c2ccccn2)cc1 | 8.04%
Cc1nc2ccccc2n1CC(=O)N/N=C\C=C\c1ccccc1 | 10.9%
CCc1[nH]nc(C(=O)NC2CCCN(Cc3ccccc3F)C2)c1C (stereo not shown) | 0.368%
COc1cccc(OC)c1C(=O)Nc1ccnn1C | -31.2%
CCNS(=O)(=O)c1ccc(NC(=O)c2cccnc2)cc1 | 18.5%
COCCCNc1ncnc2sc3c(c12)CCC(C)C3 (stereo not shown) | -24.5%
Cc1ccc2nc(SCC(=O)N/N=C/c3ccc(C(=O)O)cc3)cc(C)c2c1 | -18.1%
c1ccc2c(Cn3ccnc3)cccc2c1 | 9.72%
Cn1c(NCCCO)nc2c(c1=O)C1(CCCCC1)Cc1ccccc1-2 | -11.8%
COc1ccc2[nH]c(C)c(CCNC(=S)Nc3ccc(C)cc3)c2c1 | -0.172%
Cc1c(Cl)cccc1NC(=O)c1cc(-c2ccco2)on1 | -0.802%
CNC(=O)COC(=O)c1cc(SC)ccc1Cl | 23.6%
Cc1ccc(NC(=O)N(CCCN2CCOCC2)Cc2cccs2)cc1C | -47.6%
CN(C)S(=O)(=O)c1ccc(NC(=O)CCNC(=O)c2ccco2)cc1 | 9.63%
Cc1ccc(C2OC(=O)c3ccccc32)cc1 (stereo not shown) | -0.543%
COc1cc(C(=O)N/N=C/c2ccc(OC(=O)c3ccccc3Cl)c(OC)c2)ccc1O | 13.4%
O=C(Nc1nccs1)c1cn(-c2ccccc2)nc1-c1ccccc1 | -23.8%
COc1ccc(CCNC(=O)COC(=O)C2CC2C)cc1OC (stereo not shown) | 6.27%
COc1cccc(C=NCCNC(=O)c2nonc2N)c1O | 1.59%
COc1ccc(CN=C(NS(=O)(=O)c2cccs2)SC)cc1 | -5.77%
CS(=O)(=O)N1CC2CCCN2c2cc(C(F)(F)F)ccc21 (stereo not shown) | -19.2%

Compound | hERG current change (%, negative = inhibition) at 10uM
CCn1c(COc2c(C)cccc2C)nnc1SCC(=O)N1CCN(c2ccccc2)CC1 | -8.6%
O=C(C#Cc1ccccc1)Nc1cccc(F)c1 | -21.7%
Cc1ccc(-c2csc(NC(=O)CSc3nc(C)cc(=O)[nH]3)n2)cc1 | 1.07%
CC(C)NC(=O)C(OC(=O)c1ccccc1)C(OC(=O)c1ccccc1)C(=O)O (stereo not shown) | 10.9%
CC(C)C(c1nnnn1Cc1ccco1)N1CCC(C(N)=O)CC1 (stereo not shown) | 9.26%
Br.CC(=O)Nc1ccc(-c2csc(N/N=C(/C)c3ccccc3)n2)cc1 | 5.38%
CCn1c(=O)c(C(=O)CN2CCN(Cc3ccc4c(c3)OCO4)CC2)c(N)n(Cc2ccccc2)c1=O | -72%
CCCc1cc(=O)[nH]c(SCC)n1 | -5.96%
Cc1cc(=O)oc2cc(OCC(=O)Nc3nnc(C4CC4)s3)ccc12 | -0.423%
CC(C)C[C@H](NC(=O)C1CC(=O)N(c2ccc(F)cc2)C1)C(=O)N1CCCCC1 (stereo partly shown) | -0.716%
O=C(Cc1cccs1)N1CCN(c2nc(-c3ccc(Cl)cc3)cs2)CC1 | -8.73%
CN(c1ccccc1C(=O)NCc1ccco1)S(C)(=O)=O | 15.5%
COc1cc(Cl)c(C)cc1N1C(=O)CN(Cc2ccccc2)C1=S | 0.634%
Nc1nnc(SCc2ccc(F)cc2Cl)s1 | -7.73%
O=c1[nH]c(=O)n(C2CCCCC2)c(O)c1/C=C/C=Nc1ccccc1 | 15.7%
CC1CCN(C(=O)CN2C(=O)C(C)(C)Oc3ccc(C(=O)NC4CCCC4)cc32)CC1 | -1.35%
CC1CCN(CC(O)Cn2c3ccccc3c3ccccc32)CC1 (stereo not shown) | -54%
CC1(C)CC(=O)C(C(c2ccc(Br)cc2)C2C(=O)CC(C)(C)CC2=O)C(=O)C1 | 0.769%
CC(=O)c1ccc(-c2ccc(C(=O)NC3CCCCCC3)o2)cc1 | 26%
O=C(COC(=O)Cc1ccccc1)Nc1cccnc1Cl | 25.1%
COc1cc(C(=S)N2CCOCC2)ccc1OC(=O)c1cccc(C)c1 | -3.3%
Cc1ccc(C2C(=O)c3ccccc3C2=O)cc1 | 20.2%
